{"source": "patent US20070219214A1", "about": "“Dual NK2/NK3-antagonists, pharmaceutical compositions comprising them, and processes for their preparation” (Solvay pharmaceuticals GmbH, priority 2006, published 2007)", "key": {"[1]": {"molecular_target": "T1, human NK3 receptor (Homo sapiens, UniProt P29371)", "T1 sequence (P29371 1-465)": "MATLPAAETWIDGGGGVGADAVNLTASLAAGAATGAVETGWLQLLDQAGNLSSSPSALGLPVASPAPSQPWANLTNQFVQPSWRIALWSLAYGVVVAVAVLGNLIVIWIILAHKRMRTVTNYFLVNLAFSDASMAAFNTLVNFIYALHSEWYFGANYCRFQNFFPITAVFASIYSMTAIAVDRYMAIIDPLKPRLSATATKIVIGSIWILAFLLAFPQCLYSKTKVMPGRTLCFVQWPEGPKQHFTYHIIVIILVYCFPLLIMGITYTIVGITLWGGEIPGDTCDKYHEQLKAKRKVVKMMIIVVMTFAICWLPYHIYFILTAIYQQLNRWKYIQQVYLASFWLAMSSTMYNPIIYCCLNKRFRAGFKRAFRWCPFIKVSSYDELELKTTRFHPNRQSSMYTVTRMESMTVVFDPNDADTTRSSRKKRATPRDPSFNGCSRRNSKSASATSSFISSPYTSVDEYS", "assay": "Binding potency of the test substances to NK3-receptors in vitro ([3H]-SR 142801 displacement)", "design": "expressed in transfected cells; host or cells: CHO cells (membrane preparation)", "details": "human NK3-receptor in CHO cell membranes, [3H]-SR 142801 (osanetant), average of at least three measurements", "from_the_text": "3. Determination of the Binding Potency of the Test Substances to NK3-Receptors in Vitro\nThe affinity of test compounds for NK3-receptors can be determined by measuring the ability of the test compound to displace a radiolabeled ligand from its specific binding site.\n(§1) The radiolabel used in this assay is [^3H]-SR 142801 (osanetant). Receptors were obtained from membrane preparations of CHO-cells (Chinese Hamster Ovary cells), in which the human NK3-receptor was stably expressed. Membranes were incubated with [^3H]-osanetant in the absence or presence of test compounds at different concentrations, diluted in a buffer system. Separation of bound radioactivity from free radioactivity was done by filtration through glass fiber filters (Packard GF/B) with several washings with ice-cold buffer solution. Bound radioactivity was measured with a liquid scintillation counter (total binding). Unspecific binding was determined by incubation with an excess (1 μmol/l) of unlabeled osanetant. Specific binding is obtained by subtracting the unspecific binding from the total binding.\n(§2) Radioactivity of the specific binding was plotted against the concentration of the test compound and IC50 values, i.e. the concentration of test compound by which 50% of the radioligand is displaced, were calculated. The inhibition constant (Ki) was calculated according to the Cheng-Prusoff equation, and listed as its negative logarithmic value (pKi) The pKi value describes the potency of a test compound to bind to a receptor.\n(§3) The average result of all measurements is listed above."}, "[2]": {"molecular_target": "T2, human NK2-receptor (Homo sapiens, UniProt P21452)", "T2 sequence (P21452 1-398)": "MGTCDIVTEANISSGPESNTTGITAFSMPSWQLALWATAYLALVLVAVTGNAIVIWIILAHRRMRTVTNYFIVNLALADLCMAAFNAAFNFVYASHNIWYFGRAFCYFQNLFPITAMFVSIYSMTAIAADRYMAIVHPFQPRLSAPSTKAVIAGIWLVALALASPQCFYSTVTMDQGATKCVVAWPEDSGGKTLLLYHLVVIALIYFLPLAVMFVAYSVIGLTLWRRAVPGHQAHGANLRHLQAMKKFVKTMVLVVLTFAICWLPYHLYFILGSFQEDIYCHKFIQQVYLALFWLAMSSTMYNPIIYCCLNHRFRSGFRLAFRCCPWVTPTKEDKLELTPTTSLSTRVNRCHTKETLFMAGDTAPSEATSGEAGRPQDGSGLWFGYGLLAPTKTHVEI", "assay": "Binding potency of the test substances to NK2-receptors in vitro ([3H]-SR 48968 displacement)", "design": "expressed in transfected cells; host or cells: CHO cells (membrane preparation)", "details": "human NK2-receptor in CHO cell membranes, [3H]-SR 48968 (saredutant), average of at least three measurements", "from_the_text": "2. Determination of the Binding Potency of the Test Substances to NK2-Receptors in Vitro\nThe affinity of test compounds for NK2-receptors can be determined by measuring the ability of the test compound to displace a radiolabeled ligand from its specific binding site.\nas §1, with “48968 (saredutant).” for “142801 (osanetant).”, “NK2-receptor” for “NK3-receptor”, “[^3H]-saredutant” for “[^3H]-osanetant”, “(0.1” for “(1”, “saredutant.” for “osanetant.”\nas §2, with “(pKi).” for “(pKi)”\nas §3"}, "[3]": {"molecular_target": "human NK1-receptor (Homo sapiens, UniProt P25103)", "sequence (P25103 whole entry)": "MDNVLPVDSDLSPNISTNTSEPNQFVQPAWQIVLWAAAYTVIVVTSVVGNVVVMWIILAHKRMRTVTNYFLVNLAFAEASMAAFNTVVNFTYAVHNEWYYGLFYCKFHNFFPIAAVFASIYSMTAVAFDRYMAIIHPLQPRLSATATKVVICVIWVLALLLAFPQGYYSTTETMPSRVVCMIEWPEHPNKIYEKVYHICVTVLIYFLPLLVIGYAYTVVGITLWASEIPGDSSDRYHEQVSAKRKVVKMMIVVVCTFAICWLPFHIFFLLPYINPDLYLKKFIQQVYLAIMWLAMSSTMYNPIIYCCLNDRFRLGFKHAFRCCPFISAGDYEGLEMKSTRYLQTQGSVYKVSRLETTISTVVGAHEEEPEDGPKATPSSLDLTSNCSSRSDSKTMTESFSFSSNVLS", "assay": "Binding potency of the test substances to NK1-receptors in vitro ([3H]-Substance P displacement)", "details": "human NK1-receptor in CHO cell membranes, average of at least three measurements", "experimental": "1. Determination of the Binding Potency of the Test Substances to NK1-Receptors in Vitro\nThe affinity of test compounds for NK1-receptors can be determined by measuring the ability of the test compound to displace a radiolabeled ligand from its specific binding site. The tests were performed at Solvay Pharmaceuticals, Weesp, The Netherlands.\nSeparation of bound radioactivity from free radioactivity was done by filtration through glass fiber filters (Packard GF/B) with several washings with ice-cold buffer solution. Bound radioactivity was measured with a liquid scintillation counter (total binding).\nThe inhibition constant (Ki) was calculated according to the Cheng-Prusoff equation, and listed as its negative logarithmic value (pKi). The pKi value describes the potency of a test compound to bind to a receptor."}}, "note": "Some of these results come from one statement about several compounds together. For part of these data: At least one structure is not confirmed: it was looked up by name or label, or the drawing left a doubt."}
{"smiles": "CN(C)C(=O)C1(N2CCCCC2)CCN(CC[C@H](CN(C)C(=O)C2CCCCC2)c2ccc(Cl)c(Cl)c2)CC1", "note": "[compound 3]", "values": [{"measurement": "pKi, binding potency to NK3-receptors", "setting": "[1]; listed as Example 3", "result": "at least 8.0"}, {"measurement": "pKi, binding potency to NK2-receptors", "setting": "[2]; listed as Example 3", "result": "at least 8.0"}]}
{"smiles": "CC(=O)Oc1ccc(C(=O)N(C)C[C@@H](CCN2CCC(C(=O)N(C)C)(N3CCCCC3)CC2)c2ccc(Cl)c(Cl)c2)cc1", "note": "[compound 5, 4-({[(2S)-2-(3,4-dichlorophenyl)-4-{4′-[(dimethylamino)-carbonyl]-1,4′-bipiperidin-1′-yl}butyl](methyl)amino}carbonyl)phenyl acetate]", "values": [{"measurement": "pKi, binding potency to NK3-receptors", "setting": "[1]", "result": "at least 8.0"}, {"measurement": "pKi, binding potency to NK2-receptors", "setting": "[2]", "result": "at least 9.0"}]}
{"smiles": "CN(C)C(=O)C1(N2CCCCC2)CCN(CC[C@H](CN(C)C(=O)c2ccc(O)cc2)c2ccc(Cl)c(Cl)c2)CC1", "note": "[compound 6, 1′-{(3S)-3-(3,4-dichlorophenyl)-4-[(4-hydroxybenzoyl)-(methyl)amino]butyl}-N,N-dimethyl-1,4′-bipiperidine-4′-carboxamide]", "values": [{"measurement": "pKi, binding potency to NK3-receptors", "setting": "[1]", "result": "at least 8.0"}, {"measurement": "pKi, binding potency to NK2-receptors", "setting": "[2]", "result": "at least 9.0"}]}
{"smiles": "CN(C)C(=O)C1(N2CCCCC2)CCN(CC[C@H](CN(C)C(=O)c2ccc(F)c(Cl)c2)c2ccc(Cl)c(Cl)c2)CC1", "note": "[compound 8]", "values": [{"measurement": "pKi, binding potency to NK3-receptors", "setting": "[1]", "result": "at least 8.0"}, {"measurement": "pKi, binding potency to NK2-receptors", "setting": "[2]", "result": "at least 8.0"}]}
{"smiles": "CN(C)C(=O)C1(N2CCCCC2)CCN(CC[C@H](CN(C)C(=O)c2cc(F)cc(F)c2)c2ccc(Cl)c(Cl)c2)CC1", "note": "[compound 9]", "values": [{"measurement": "pKi, binding potency to NK3-receptors", "setting": "[1]; listed as Example 9", "result": "at least 8.0"}, {"measurement": "pKi, binding potency to NK2-receptors", "setting": "[2]", "result": "at least 8.0"}]}
{"smiles": "CCC(=O)N(CC1CC1)C1CCN(CC[C@H](CN(C)C(=O)c2ccccc2)c2ccc(Cl)c(Cl)c2)CC1", "note": "[compound 105, N-[(2S)-4-{4-[(cyclopropylmethyl)(Propionyl)-amino]piperidin-1-yl}-2-(3,4-dichlorophenyl)butyl]-N-methylbenzamide]", "values": [{"measurement": "pKi, binding potency to NK1-receptors", "setting": "[3]", "result": "at least 7.0"}, {"measurement": "pKi, binding potency to NK2-receptors", "setting": "[2]", "result": "at least 8.0"}]}
